From the supplement of paper PMC4967469
pIC50: −log10 of the molar value. A lower IC50 marks a more sensitive line; a limit (>, <) means that the fit lies beyond the doses tested. AUC is the area under the same curve over the 256-fold range up to the top dose, as a fraction; it is 1 without any effect and falls as sensitivity rises. For some assays here: Any top dose called inferred comes from the curve model; the source does not state it. For some assays here: Drugs with an entry number were screened twice under separate entries, and the two screens often disagree.

What was measured:
Assay in all cases: Viability of human cancer cell lines after 72 h of drug (GDSC screen)
CUDC-101 = compound: C#Cc1cccc(Nc2ncnc3cc(OC)c(OCCCCCCC(=O)NO)cc23)c1 [CUDC-101]; conditions: top dose 5.12 µM; top dose inferred
Experimental: (§1)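 Human cancer cell lines in 384-well plates, medium with 10% serum, drug for 72 h over a 256-fold dose range (nine 2-fold or five 4-fold steps up to the top dose). Adherent lines were fixed and stained with the nucleic acid dye Syto60, suspension lines read with resazurin; signal relative to control wells, capped at 0 and 100%. One two-parameter sigmoid per drug and line, fitted in a mixed model over all curves with the slope shared within a line.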

AC220 = compound: CC(C)(C)c1cc(NC(=O)Nc2ccc(-c3cn4c(n3)sc3cc(OCCN5CCOCC5)ccc34)cc2)no1 [AC220]; conditions: top dose 1.024 µM; top dose inferred
Experimental: as §1

RDEA119 = compound: COc1cc(F)c(F)c(Nc2ccc(I)cc2F)c1NS(=O)(=O)C1(C[C@H](O)CO)CC1 [RDEA119]; conditions: top dose 5 µM, top dose inferred
Experimental: as §1

JNK-9L = compound: Fc1cc(-c2ccnc(Nc3ccc(-n4cnc(N5CCOCC5)n4)cc3)n2)cc(N2CCOCC2)c1 [JNK-9L]; conditions: top dose 5.12 µM; top dose inferred
Experimental: as §1

OSU-03012 = compound: NCC(=O)Nc1ccc(-n2nc(C(F)(F)F)cc2-c2ccc3c(ccc4ccccc43)c2)cc1 [OSU-03012]; conditions: top dose 16 µM; top dose inferred
Experimental: as §1

5-Fluorouracil = compound: O=c1[nH]cc(F)c(=O)[nH]1 [5-Fluorouracil]; conditions: top dose 32 µM; top dose inferred
Experimental: as §1

QS11 = compound: OC[C@H](Cc1ccccc1)Nc1nc(Oc2ccc3c(c2)CCC3)nc2c1ncn2Cc1ccc(-c2ccccc2)cc1 [QS11]; conditions: top dose 10.24 µM
Experimental: as §1

Row | Cell Line | AUC (CUDC-101) | pIC50 (CUDC-101) | AUC (AC220) | pIC50 (AC220) | AUC (RDEA119; screen: GDSC drug entry 1014) | pIC50 (RDEA119; screen: GDSC drug entry 1014) | AUC (RDEA119; screen: GDSC drug entry 1526) | pIC50 (RDEA119; screen: GDSC drug entry 1526) | AUC (JNK-9L) | pIC50 (JNK-9L) | AUC (OSU-03012) | pIC50 (OSU-03012) | AUC (5-Fluorouracil) | pIC50 (5-Fluorouracil) | AUC (QS11) | pIC50 (QS11)
1 | PE/CA-PJ15 (head and neck, adherent) | 0.581 | 6.26 | 0.985 | < 5.99 | 0.672 | 6.01 | 0.657 | 6.05 | 0.875 | < 5.29 | 0.835 | 4.93 | 0.908 | < 4.49 | 0.986 | < 4.99
2 | PFSK-1 (medulloblastoma, adherent) | 0.64 | 6.10 | 0.984 | < 5.99 | 0.977 | < 5.30 |  |  | 0.638 | 6.10 | 0.841 | 4.92 | 0.893 | < 4.49 | 0.957 | < 4.99
3 | PL4 (pancreas, adherent) | 0.763 | 5.72 | 0.987 | < 5.99 | 0.728 | 5.85 | 0.684 | 5.98 | 0.615 | 6.17 | 0.831 | 4.97 | 0.96 | < 4.49 | 0.971 | < 4.99
4 | PL18 (pancreas, adherent) | 0.647 | 6.09 | 0.988 | < 5.99 |  |  | 0.985 | < 5.30 | 0.698 | 5.94 | 0.74 | 5.32 | 0.924 | < 4.49 | 0.949 | < 4.99
5 | PSN1 (pancreas, adherent) | 0.432 | 6.67 | 0.991 | < 5.99 | 0.435 | 6.67 | 0.497 | 6.51 | 0.795 | 5.71 | 0.505 | 5.99 | 0.349 | 6.08 | 0.767 | 5.49
6 | QIMR-WIL (acute myeloid leukaemia, suspension) | 0.268 | 7.14 | 0.965 | < 5.99 | 0.982 | < 5.30 | 0.936 | < 5.30 | 0.492 | 6.52 | 0.559 | 5.84 | 0.542 | 5.59 | 0.765 | 5.44
7 | RC-K8 (B-cell lymphoma, suspension) | 0.708 | 5.95 | 0.993 | < 5.99 | 0.993 | < 5.30 | 0.992 | < 5.30 | 0.687 | 6.01 | 0.863 | 4.96 | 0.853 | 4.70 | 0.992 | < 4.99
8 | RCC10RGB (kidney, adherent) | 0.846 | < 5.29 | 0.972 | < 5.99 | 0.852 | < 5.30 |  |  | 0.648 | 5.91 | 0.76 | 4.91 | 0.874 | < 4.49 | 0.971 | < 4.99
9 | RCM-1 (large intestine, adherent) | 0.795 | 5.53 | 0.985 | < 5.99 | 0.416 | 6.76 | 0.685 | 5.94 | 0.642 | 6.06 | 0.866 | < 4.80 | 0.937 | < 4.49 | 0.98 | < 4.99
10 | RD (rhabdomyosarcoma, adherent) | 0.576 | 6.28 | 0.984 | < 5.99 |  |  | 0.568 | 6.31 | 0.652 | 6.05 | 0.738 | 5.29 | 0.863 | < 4.49 | 0.923 | < 4.99
11 | RERF-GC-1B (stomach, adherent) | 0.935 | < 5.29 | 0.983 | < 5.99 |  |  | 0.837 | 5.41 | 0.771 | 5.66 | 0.788 | 5.10 | 0.831 | 4.63 | 0.871 | < 4.99
12 | RERF-LC-KJ (lung adenocarcinoma, adherent) | 0.813 | 5.54 | 0.967 | < 5.99 | 0.899 | < 5.30 | 0.912 | < 5.30 | 0.691 | 5.95 | 0.824 | 5.01 | 0.971 | < 4.49 | 0.848 | 5.10
13 | RERF-LC-MS (lung adenocarcinoma, adherent) | 0.824 | 5.50 | 0.987 | < 5.99 | 0.701 | 5.93 | 0.773 | 5.70 | 0.635 | 6.12 | 0.854 | 4.88 | 0.974 | < 4.49 | 0.986 | < 4.99
14 | RERF-LC-Sq1 (lung squamous cell carcinoma, adherent) | 0.685 | 5.87 | 0.978 | < 5.99 | 0.757 | 5.60 | 0.719 | 5.75 | 0.904 | < 5.29 | 0.859 | < 4.80 | 0.899 | < 4.49 | 0.979 | < 4.99
15 | RF-48 (stomach, adherent) | 0.279 | 7.16 | 0.979 | < 5.99 | 0.965 | < 5.30 | 0.973 | < 5.30 | 0.474 | 6.57 | 0.679 | 5.47 | 0.592 | 5.43 | 0.894 | < 4.99
